Source: PubChem BioAssay AID488969 (Vanderbilt High Throughput Screening Facility, 2010)
Over roughly 110,000 compounds, “z-score” has its median near -0.1; the highest 2% begin near 2. The list shows a part of the results. Activity calls are given as the source filed them.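 Rule for the calls: active = z-score in the third read window above 3 or below -3; inactive = the rest.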

molecular target: Metabotropic glutamate receptor 8 (Rattus norvegicus) (UniProt P70579); assay: rat mGluR8 modulators via GIRK flux, primary screen, cell-based, thallium flux, HTS (AID 488969); details: HEK293 rat mGluR8, GIRK (G protein-gated inwardly rectifying potassium channel) thallium flux, FluoZin2; at 10 µM; stronger effect = higher value; submaximal glutamate (EC20) added with thallium
Chain of UniProt P70579 (P70579 whole entry, looked up): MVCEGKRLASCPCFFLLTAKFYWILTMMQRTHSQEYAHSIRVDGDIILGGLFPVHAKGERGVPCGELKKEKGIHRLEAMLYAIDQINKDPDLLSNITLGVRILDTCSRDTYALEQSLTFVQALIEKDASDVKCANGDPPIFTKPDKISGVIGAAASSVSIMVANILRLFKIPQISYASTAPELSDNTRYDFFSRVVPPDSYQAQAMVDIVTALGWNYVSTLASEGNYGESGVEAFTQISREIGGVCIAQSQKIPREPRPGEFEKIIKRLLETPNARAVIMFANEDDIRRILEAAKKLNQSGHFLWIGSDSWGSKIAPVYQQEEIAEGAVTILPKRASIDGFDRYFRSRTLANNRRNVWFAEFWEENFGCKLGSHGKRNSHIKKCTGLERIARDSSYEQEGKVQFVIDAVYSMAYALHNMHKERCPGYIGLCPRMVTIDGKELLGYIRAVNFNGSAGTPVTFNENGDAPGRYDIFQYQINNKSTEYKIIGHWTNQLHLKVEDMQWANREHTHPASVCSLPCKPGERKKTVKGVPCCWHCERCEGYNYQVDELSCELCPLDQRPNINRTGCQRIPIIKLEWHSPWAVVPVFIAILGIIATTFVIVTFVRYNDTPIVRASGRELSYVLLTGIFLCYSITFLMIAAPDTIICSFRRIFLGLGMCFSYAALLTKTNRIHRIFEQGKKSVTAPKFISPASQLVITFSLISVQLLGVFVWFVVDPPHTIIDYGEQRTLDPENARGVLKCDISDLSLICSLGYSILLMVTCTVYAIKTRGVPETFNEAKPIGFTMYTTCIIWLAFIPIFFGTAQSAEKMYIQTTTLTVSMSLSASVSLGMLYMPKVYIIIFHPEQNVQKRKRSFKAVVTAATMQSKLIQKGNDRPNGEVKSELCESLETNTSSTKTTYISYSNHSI

Row | Structure (SMILES) | z-score
1 | O=C(/C=C/NNC(=O)c1cccc(Br)c1)c1cccc(Br)c1 | 1.86
2 | COc1ccc(/C=C/C(=O)NC(=S)NNC(=O)Cc2cccs2)cc1 | 0.855
3 | CC(=O)CSc1nnc(-c2ccc3c(c2)OCO3)o1 | 0.167
4 | CCCN1CCN(C(=O)c2cc3c(s2)-c2ccccc2S(=O)(=O)C3)CC1 | -0.756
5 | CN(C)/C=C1\N=C(c2ccc(Cl)cc2Cl)OC1=O | -0.162
6 | CC(Oc1ccccc1)c1ccnc2nc(/N=C/N(C)C)nn12 (stereo not given) | -0.241
7 | CCOC(=O)N/N=C/c1ccc(F)cc1 | 0.114
8 | CCC(=O)Nc1ccc(-c2cc(-c3ccccc3)nc(-c3ccc(NC(=O)CC)cc3)n2)cc1 | -0.865
9 | CC(C)CNC(=O)c1cc2nc3c(c(C(F)(F)F)n2n1)CCc1ccccc1-3 | 0.631
10 | CC(=O)OCc1c(COC(C)=O)[n+](=O)c2ccccc2n1[O-] | -0.00176
11 | Cc1sc2c(c1C)CN(C(C)(C)C)CN2C(=O)c1ccccc1 | 0.313
12 | CC1=CC(C)(C)Nc2ccc(OC(=O)C(Cc3ccccc3)N3C(=O)C4CCCCC4C3=O)cc21 (stereo not given) | 2.63
13 | COc1ccc(S(=O)(=O)N2CCOCC2)cc1NC(=O)CN1CCC(Cc2ccccc2)CC1 | -0.243
14 | NC(=O)C1CCN(C2OC(=O)c3ccccc32)CC1 (stereo not given) | 0.341
15 | Cc1cc(NC(=O)CCCS(=O)(=O)c2nc(-c3cccs3)cc(C(F)(F)F)n2)no1 | -0.741
16 | O=C(CN1CCN(C(c2ccccc2)c2ccccc2)CC1)N1CCOCC1 | -0.28
17 | O=C(CN1C(=O)c2ccccc2C1=O)N1CCN(c2ccccc2)CC1 | 0.109
18 | CC(C)c1ccc(/C=N/NC(=O)C(=O)NCCCN2CCOCC2)cc1 | -0.0531
19 | COC(=O)c1nn(-c2ccccc2)c(=O)cc1Oc1ccccc1 | -0.0974
20 | CC(NCc1ccc2c(c1)OCO2)C(=O)NC1CCCc2ccccc21 (stereo not given) | -0.369
21 | COC(=O)COc1ccc2oc(=O)cc(C)c2c1 | 0.0285
22 | CCC(C)NC(=O)C(NS(=O)(=O)c1cccc2nsnc12)c1ccccc1 (stereo not given) | -0.00978

Row | Structure (SMILES) | z-score
23 | Cc1cccc(C2=N/C(=C\c3cccnc3)C(=O)O2)c1 | 0.682
24 | COc1ccc(N(CC(=O)NC2CCCCC2)S(=O)(=O)c2cccnc2)cc1 | 0.453
25 | O=C(Nc1ccc(-c2nc3ccccc3[nH]2)cc1)c1cccc(N2C(=O)CCC2=O)c1 | -0.255
26 | O=C(/C(=C\c1ccccc1)c1nc2ccccc2[nH]1)c1ccc(Cl)cc1 | -0.37
27 | C=CCN=C1CC(C)(C)CC(=O)/C1=C(/O)CCC(=O)OC | 0.22
28 | O=C(Nc1cccc(N2CCCC2)c1)c1cccs1 | -0.165
29 | C=CCNc1cnn(CC(C)=O)c(=O)c1Br | -0.0909
30 | O=C(/C=C/c1ccco1)Nc1cccc2cccnc12 | -0.155
31 | COC(=O)C1=C(N)n2c(s/c(=C\c3cccnc3)c2=O)=C(C(=O)OC)C1c1cccnc1 (stereo not given) | -0.382
32 | C/C=C/Cn1c(SCc2ccccc2)nc2c1c(=O)[nH]c(=O)n2C | -0.907
33 | Cc1ccc(NC(=S)N2CCCC(c3nc4ccc(C)cc4[nH]3)C2)c(C)c1 (stereo not given) | 0.124
34 | CC1CC(C)CN(S(=O)(=O)c2ccc(C(=O)N3CCN(c4ccccc4)CC3)cc2)C1 (stereo not given) | -0.71
35 | O=C(C1CCC1)N1CCC(c2nc3c(nnn3Cc3c(F)cccc3Cl)c(=O)[nH]2)CC1 | -1.14
36 | COc1ccc(CN2CC(C(=O)NCCN3CCOCC3)CC2=O)cc1 (stereo not given) | -1.04
37 | COc1ccc(C2=NO[C@@H]3C(=O)N(c4cccc(C)c4C)C(=O)[C@H]23)cc1OC | -0.245
38 | CCC(C)(C)n1nnnc1C(c1cc2cc(C)cc(C)c2[nH]c1=O)N1CCN(Cc2ccc3c(c2)OCO3)CC1 (stereo not given) | 0.932
39 | CC(C)C(=O)NC(=S)N(Cc1ccccc1)Cc1ccccc1 | active: 9.57
40 | COC(=O)C(C)Sc1snnc1-c1ccccc1 (stereo not given) | -1.65
41 | CN1CCN(C(=O)c2cc3sccc3n2CC(=O)c2ccccc2)CC1 | -0.0487
42 | CCOC(=O)c1cnc2ccc(C)cc2c1Sc1ccccc1 | -0.189
43 | Cc1ccc(CNC(=O)CC2C(=O)Nc3c2c(=O)n(C)c(=O)n3Cc2ccccc2)cc1 (stereo not given) | -0.159
44 | CSc1n[nH]c(NCc2ccc(Cl)cc2)n1 | 0.551

Row | Structure (SMILES) | z-score
45 | O=C(O)CC(=O)Nc1ccccc1C(=O)O | 0.01
46 | CC(C)c1cc(C(C)C)c(S(=O)(=O)NNC(=O)c2ccncc2)c(C(C)C)c1 | -0.268
47 | COc1ccccc1CNc1ncnc2c1nnn2Cc1ccccc1 | 0.134
48 | Cc1c(C(=O)NCCC2=CCCCC2)cccc1[N+](=O)[O-] | -0.0641
49 | CCC(C)c1cc(S(=O)(=O)N2CCOCC2)ccc1OC (stereo not given) | -0.586
50 | Cc1cc(C(F)(F)F)nn1-c1nc(-c2ccco2)cc(C(F)(F)F)n1 | 0.709
51 | NC(=O)c1ccc(NC(=O)C2CCCO2)cc1 (stereo not given) | 0.181
52 | CC1CCCC(C)N1C(=O)CSc1nnc(-c2cccs2)o1 (stereo not given) | -0.0409
53 | O=C(NCCO)c1nc(NCCO)c2ccccc2n1 | -0.268
54 | CC1CCCCN1S(=O)(=O)c1ccc(NC(=O)c2cccs2)cc1 (stereo not given) | -0.377
55 | CC(=O)NCCNC(=O)CCNC(=O)c1ccc(Cl)cc1 | -0.00998
56 | CCC(c1nnnn1C(C)(C)C)N1CCN(C2CCCC2)CC1 (stereo not given) | 0.224
57 | CC(C)Cc1nc(N2CCN(C(=O)c3ccco3)CC2)c(C#N)c2c1CCC2 | -0.385
58 | O=C(Nc1ccc(Cl)c(Cl)c1)Nc1cc(S(=O)(=O)N2CCOCC2)ccc1N1CCCC1 | 0.00467
59 | COCCSc1ccccc1C(=O)NCc1ccc2c(c1)OCO2 | 0.622
60 | COC(=O)C1=C(C)NC(=O)C1(NS(=O)(=O)c1ccc(C)cc1)C(F)(F)F (stereo not given) | -0.144
61 | O=C(CNC1CCCCCC1)c1cccs1 | -0.0287
62 | CCc1nnc(NC(=O)CSc2nnc(Cc3ccccc3)o2)s1 | -0.2
63 | CCOC(=O)c1c(NC(=O)c2ccco2)sc2c1CCCCC2 | -0.506
64 | CC(C)SCCCOc1ccc(C(C)(C)C)cc1 | 0.0236
65 | CSc1ccccc1NC(=O)c1noc2c1CCC2 | -0.51
66 | COc1ccccc1NC(=S)N1C2CCC1CC(NC(=O)NC13CC4CC(CC(C4)C1)C3)C2 (stereo not given) | -1.59

Row | Structure (SMILES) | z-score
67 | Cc1cc(NC(=O)c2ocnc2C)no1 | 0.00862
68 | CSc1nc2ccccc2n1Cc1c(Cl)cccc1Cl | -0.261
69 | O=C(O)c1ccc(-n2c(-c3ccccc3)n[nH]c2=S)cc1 | 0.205
70 | CC1CN(C(=O)COC(=O)[C@@H]2CC(O)CN2S(=O)(=O)c2ccc3c(c2)OCCO3)CC(C)O1 (stereo not given in full) | 0.119
71 | CC(C)c1ccc(/C=C(/C#N)c2nnc(NC(=O)c3ccccc3)s2)cc1 | -0.368
72 | Cc1cc(=O)oc(C)c1C(=O)NCC1CCCO1 (stereo not given) | -0.0129
73 | CCN(CC)C(c1ccc(F)cc1)c1nnnn1CC1CCCO1 (stereo not given) | 0.155
74 | COC(=O)C1=C(C)Nc2ncnn2C1c1ccco1 (stereo not given) | -0.221
75 | COc1cc(-c2noc(CCCC(=O)NCc3ccccc3)n2)cc(OC)c1OC | 0.322
76 | O=C(CCc1ccccc1)Nc1nncs1 | -0.0191
77 | O=C(CNC(=O)/C(=C\c1ccc(F)cc1)NC(=O)c1ccccc1)OCc1ccccc1 | -0.0481
78 | Cc1ccc(-c2nn(C)c(=O)c3ccccc23)cc1S(=O)(=O)N1CCCC1 | -0.238
79 | COc1ccc(/C=N/OCC(=O)N2CC3(C)CC2CC(C)(C)C3)cc1 (stereo not given) | -0.154
80 | COc1cc2[nH]c3c(N4CCN(c5ccccn5)CC4)ncnc3c2cc1OC | -0.28
81 | O=C(c1ccco1)N1C2C=CC(C2)C1(C(F)(F)F)C(F)(F)F (stereo not given) | 0.144
82 | CCCCSc1nc2sc3c(c2c(=O)[nH]1)CCC3 | 0.338
83 | C/C(=C\C(=O)c1ccc(Br)cc1)N1CCCCC1 | -0.646
84 | O=C(C1=C(O)C(=O)N(CCN2CCOCC2)C1c1cccnc1)c1cc2ccccc2o1 (stereo not given) | 0.521
85 | CCOc1ccc(N/C(C)=C/C(=O)c2ccc(C)o2)cc1 | 0.126
86 | Cc1ccc(NS(=O)(=O)c2ccc(CCC(=O)NCCO)cc2)cc1 | -0.659
87 | Cc1ccc(N2C(=O)c3oc4ccccc4c(=O)c3C2c2cccc(O)c2)nc1 (stereo not given) | -0.485
88 | CCN(CC)C(=O)CN(c1ccc(C)cc1)S(=O)(=O)c1ccc(SC)cc1 | -1.31

Row | Structure (SMILES) | z-score
89 | CCOC(=O)N1CCN(C(=O)COc2ccccc2OC)CC1 | 0.191
90 | CCN1CC=C2C(C#N)=C(N)C(C#N)(C#N)[C@H](c3ccoc3)[C@H]2C1 | -0.115
91 | COc1cccc(C2C(C(=O)c3sc(C)nc3C)=C(O)C(=O)N2CCN2CCOCC2)c1OC (stereo not given) | -0.182
92 | CC1CCC(NC(=O)C2CCC(CNS(=O)(=O)c3cccc4nsnc34)CC2)CC1 (stereo not given) | -0.141
93 | Cc1cccc(C)c1OCC(=O)Nn1c(C)nc2ccccc2c1=O | -0.0405
94 | CSc1nc(C)cc(-n2cc(F)c(=O)[nH]c2=O)n1 | 0.229
95 | CC(=O)n1nc(-c2cccc(C)c2)nc1SCC(=O)Nc1ccccc1 | -0.411
96 | COc1cccc(C=Nc2ccc(C)c(F)c2)c1O | -0.642
97 | COc1ccccc1NC(=O)N1CCN(c2ccc(F)cc2)CC1 | 0.16
98 | Cc1cc2c(c(=O)n1C)C(C(C)C)C(C#N)=C(N)O2 (stereo not given) | 0.185
99 | Cc1ccc(-n2c(=O)cc(N3CCN(Cc4ccccc4)CC3)[nH]c2=O)cc1 | -0.339
100 | Cc1ccc(O)c(NC(=O)c2cc3nc4c(c(C(F)(F)F)n3n2)CCc2ccccc2-4)c1 | -0.113
101 | CN1CCN(C(=S)Nc2cc([N+](=O)[O-])ccc2Cl)CC1 | -0.223
102 | CCN(CC)c1ccc(NC(=O)/C=C\c2ccccc2Cl)cc1 | -0.341
103 | CCOC(=O)C(=CNc1ncccc1C)C(=O)OCC | -0.543
104 | Cc1ccc(C)c(S(=O)(=O)N2CCN(C(C(=O)Nc3ccc(F)cc3)c3ccccc3)CC2)c1 (stereo not given) | 0.0839
105 | CSc1nc(-c2ccco2)nn1S(=O)(=O)c1ccccc1 | 0.0248
106 | O=C(NC1CCCCC1)C(Cc1ccccc1)N1C(=O)C2C3CCC(C3)C2C1=O (stereo not given) | -0.0883
107 | Cc1ccc(O)c(CNc2ccccn2)c1 | 0.0906
108 | O=c1c2c(nc3n1CCCCC3)-c1ccccc1CC21CCCCC1 | 0.0952
109 | O=C(NNC(=O)c1cccnc1SCc1cccc([N+](=O)[O-])c1)c1cccnc1 | active: -5.85
110 | O=C(c1ccc(N2C(=O)CCC2=O)cc1)N1CCN(c2ccccc2)CC1 | 0.218
